According to the supplement of paper PMC3334620:
The full ranking holds about 33,000 sequences; the median of “E-score (-0.5 to 0.5)” is about -0.016, and the highest 2% start at about 0.31. This is one part of the list.

These sequences were tested against Cst6 (UniProt P40535) (assay: PBM E-score (8-mer binding enrichment) (E-score (-0.5 to 0.5)); higher = stronger / more preferred TF binding; most listed sequences are background and not binding sites). Settings: protein concentration: 200 nM; construct: GST-DNA-binding domain.
Outline: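 Masliner-normalised scans of fluorescent anti-GST signal were the basis for scoring. That signal came from GST-tagged yeast transcription factors applied at about 100-200 nM to double-stranded universal all-10-mer Agilent arrays on fresh or once-stripped slides. Each ungapped eight-base word, pooled with its reverse complement, received an E-score from the Universal PBM Analysis Suite.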

| Sequence | PBM E-score |
| --- | --- |
| GTCGTCTA | -0.169 |
| TCCCTCGA | -0.205 |
| CGAACGCG | 0.0513 |
| GCAACTAA | 0.24 |
| CGTTTCGC | 0.148 |
| AGGGGACT | -0.265 |
| GTGCGCAA | -0.0799 |
| ACCTTTGG | -0.247 |
| GAGTTAGC | -0.00274 |
| GCCCCGCC | 0.00278 |
| CCTTCATA | -0.00993 |
| ACTAACGA | 0.15 |
| CGTCGTGA | -0.0311 |
| GTCTCCAA | -0.00606 |
| CCGACGTA | 0.0226 |
| GTACTAAA | 0.168 |
| CCTCCTAC | -0.178 |
| ATTTTTGG | -0.0105 |
| ACTAGTGC | -0.145 |
| ACACTAAC | 0.0573 |
| CACACCCA | -0.00542 |
| CGATAGAC | 0.018 |
| CTTACTAC | 0.119 |
| ATCGCCCC | -0.174 |
| GGAGGGAC | -0.195 |

| Sequence | PBM E-score |
| --- | --- |
| CAGGACTG | -0.0253 |
| CCCCGGAC | -0.222 |
| CACCCGGA | -0.141 |
| CTTACAGC | 0.116 |
| CCACTCAG | -0.159 |
| CAACGGAG | -0.151 |
| CTTCATGA | 0.0994 |
| ATATGACC | 0.108 |
| AGCCCGCC | -0.115 |
| GAACGCTC | -0.221 |
| AGCAATCA | 0.13 |
| ACGCACCC | -0.108 |
| CTCTGTAC | -0.195 |
| ATCAGAAT | 0.168 |
| CTACGTTC | -0.0655 |
| AGGCAGGG | -0.156 |
| AGGAGAGG | -0.245 |
| CAGCGAGC | 0.0253 |
| ATAGGAAT | 0.0669 |
| GAAATACC | -0.0294 |
| GAAGCCCC | -0.32 |
| CAGCATGG | 0.0361 |
| AGCTCGTG | -0.0841 |
| GCCTCCAC | -0.248 |
| ACCGATCC | -0.26 |

| Sequence | PBM E-score |
| --- | --- |
| AAACGTTT | 0.0411 |
| CTGCACGA | -0.0231 |
| CCTTTAGC | -0.14 |
| CATACCGC | 0.0301 |
| AAACAGTA | 0.0552 |
| GCATATGA | 0.263 |
| AATGGGCG | -0.174 |
| AAGAGTTA | 0.0327 |
| CGAGCCTA | 0.011 |
| GTCACCAA | 0.315 |
| AATGGGGA | -0.165 |
| TGGGGGAA | -0.351 |
| CCACGGTA | -0.166 |
| ACGCGCTG | -0.0795 |
| GACACAAC | 0.139 |
| TCCTAGAA | -0.0938 |
| ATAGGGCC | -0.241 |
| TCCGGGCA | -0.223 |
| CCGAGTTC | -0.063 |
| CCTCGATC | -0.163 |
| CGATACGC | -0.0748 |
| GAAACCAA | 0.0453 |
| AAGCGCGC | 0.0196 |
| ACGTGCTG | -0.0423 |
| CTGTGCCC | -0.158 |

| Sequence | PBM E-score |
| --- | --- |
| AGTGTTCA | 0.046 |
| GAGGAGAC | -0.261 |
| ACCCGTCC | -0.13 |
| ATTCTACA | 0.169 |
| AGAGGGCC | -0.25 |
| AAATTGGG | 0.0787 |
| TACTTAGA | 0.0722 |
| ACCAGGCA | -0.212 |
| CTAACGCC | -0.0434 |
| GTGGGATA | -0.0138 |
| ATCAGTGG | -0.0501 |
| ACATTGGG | -0.176 |
| AGGGTTAT | -0.0713 |
| CCATGAGA | -0.0341 |
| GCTATGTA | -0.00788 |
| AATATGGC | -0.0866 |
| AGTGCACA | -0.217 |
| CAAAATGC | 0.0958 |
| AGCCTGTC | -0.211 |
| AGAGAGCC | -0.113 |
| ATGTTTTA | 0.173 |
| AGCATCTG | -0.162 |
| TAACCTGA | 0.00914 |
| TTGATCAA | 0.181 |
| ACGGACGA | 0.0449 |

| Sequence | PBM E-score |
| --- | --- |
| CAGTAACA | 0.0927 |
| CCAAGCCC | -0.239 |
| GTTGCGGA | -0.0156 |
| TACAACCA | 0.135 |
| CTTTTATA | 0.178 |
| ACGAATCC | 0.153 |
| AGCTCTCC | -0.29 |
| CCGCAGTC | -0.0875 |
| CCTTACAG | -0.0515 |
| ATTATGGC | 0.0901 |
| CAAAATGA | 0.251 |
| GTGGTATA | 0.0731 |
| AACATAAT | 0.246 |
| CCTTATCC | -0.224 |
| CCCCCTGA | -0.273 |
| ACGAGCAA | -0.194 |
| AGGGGGCA | -0.303 |
| CGATCCCA | -0.146 |
| AAGAAACT | 0.0695 |
| ATCTGTTA | 0.16 |
| CTATCGTA | 0.179 |
| CAATTTTC | -0.00958 |
| AGATCCTC | -0.28 |
| ACCATGAG | -0.171 |
| CAATGAAC | 0.0418 |

| Sequence | PBM E-score |
| --- | --- |
| ACACCACG | -0.0337 |
| CTACGGAG | -0.148 |
| GCCAGACC | -0.174 |
| AGGGCTTG | -0.0617 |
| CAAGCTAC | -0.223 |
| CGGGATAG | -0.118 |
| AGCTGGAG | -0.304 |
| ATGCGCCC | 0.0613 |
| ATCGTTTA | 0.224 |
| CGTTGGGA | -0.00116 |
| GACAGTAA | 0.118 |
| TGAATAAA | 0.257 |
| ATGAAGGG | -0.175 |
| ACAATTCC | 0.134 |
| ACAACGAA | 0.0473 |
| CGCCGAAG | 0.0651 |
| ACCACTGG | 0.07 |
| GCCCAGGC | -0.318 |
| ACTGCAAT | 0.0816 |
| ACTCGCGA | 0.168 |
| GACGCGCC | 0.101 |
| AGCAGCAG | 0.00412 |
| CGACCACA | -0.165 |
| CCGTGTCG | 0.0544 |
| ACAGAGCC | -0.106 |

| Sequence | PBM E-score |
| --- | --- |
| GTCAACTA | 0.163 |
| ACAGCGGT | -0.0574 |
| GGCGTTAA | 0.0974 |
| ATCACGGA | 0.157 |
| CTACGTCA | 0.493 |
| CACGTTAG | 0.123 |
| CACCAATC | 0.0604 |
| ACGAGTCT | -0.282 |
| CTGGCAGA | -0.0915 |
| AGAGCGCG | 0.0175 |
| ATCTCAAC | 0.194 |
| CCCTATTA | 0.0881 |
| ACAGGGTG | -0.311 |
| CAGGCCAA | -0.178 |
| CCAAAGCG | -0.0706 |
| ATATTGGG | -0.0314 |
| AGTTAACT | 0.17 |
| CATGTCAA | 0.161 |
| GAATCAGC | 0.0669 |
| AATGACCC | -0.0671 |
| CCCCTATA | -0.199 |
| AATACGCG | 0.0532 |
